Hit rate of the full screen: of about 320,000 compounds, about 200 (0.062%) were called active. The shares of active, inactive and inconclusive entries below differ from those in the screen. Calls follow the shape of the dose curve; as a rule, active = well fitted activation curve with a large enough effect; inconclusive = small, poorly fitted or top-dose-only effect; inactive = no such curve, though single readings can be large or run the other way. No potency is given beside an inconclusive call; the fits are too rough.
Experiment: qHTS assay for re-activators of p53 using a Luc reporter; also: nearly all actives have a fitted effect of over 45% in size; as to activity change, positive = activation: % of control where 0% means no effect
Conditions: H1299 p53-A138V BP100-luciferase reporter, luminescence, 24 h; series mostly up to 92.2 µM; activity change, positive = activation: at the top concentration
In short: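 p53-null H1299 cells stably carrying temperature-sensitive p53-A138V and a BP100-luciferase reporter were pinned with compounds (4-point, 1:5 series) and held 24 hrs at 37 deg C. Luminescence was read 10 min after detection reagent.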
Potency is read from the fitted curve at half-maximal effect; tags tell the direction and shape of the fitted curve.

SMILES | Potency | activity change, positive = activation
Oc1cccc(/C=N/NC(=S)Nc2cccnc2)c1O | inconclusive [activator, partial curve, poor fit] | –
COc1cc(OC)cc(C(=O)NNC(=O)c2ccccn2)c1 | inconclusive [activator, full curve, poor fit] | –
COC(=O)c1sc2nc3c(cc2c1N)CCCC3 | – | inactive: 9.54%
O=C(O)/C=C\C(=O)NNC(=O)c1cc(-c2ccccc2)n[nH]1 | – | inactive: 0.0223%
CCC(=O)Nc1ccc(-c2nnc(-c3ccccc3)o2)cc1 | inconclusive [activator, full curve, poor fit] | –
O=C(COc1cc(F)ccc1[N+](=O)[O-])Nc1ccc2c(c1)OCO2 | inconclusive [activator, full curve, poor fit] | –
CC(C)(C)C(=O)Nc1sc2c(c1-c1nc3ccccc3[nH]1)CCCC2 | – | inactive: 8.4%
COc1cc2ccccc2cc1C(=O)Nc1nc(C)c(C(C)=O)s1 | inconclusive [activator, partial curve, poor fit] | –
CC(C)C(=O)Nc1cccc2nsnc12 | inconclusive [activator, single point] | –
CCc1ccc(C(=O)Cn2ccsc2=N)cc1 | inconclusive [activator, partial curve, poor fit] | –
O=C(N/N=C\c1ccc(Oc2ccccc2)cc1)c1csnn1 | inconclusive [activator, partial curve, poor fit] | –
Nc1nc(Sc2ccc(C(F)(F)F)cc2[N+](=O)[O-])n[nH]1 | – | inactive: 6.56%
O=C(CSc1ccc2ccccc2c1)NCCc1ccc(O)c(O)c1 | – | inactive: 3.34%
CCN1CCCC1CNC(=O)c1ccc2c(c1)NC(=O)/C(=C\c1ccc(C)cc1)S2 (centres undefined) | inconclusive [activator, partial curve, poor fit] | –
Cn1nnc(NC(=S)NC(=O)c2ccco2)n1 | – | inactive: 14%
N#Cc1nc(Nc2cc(F)cc(F)c2)c2ncn(CC(F)F)c2n1 | inconclusive [activator, full curve, poor fit] | –
O=C(CSc1nnnn1Cc1ccccc1)Nc1ccc2c(c1)OCCO2 | inconclusive [activator, single point] | –
CCN(CC)CCOC(=O)c1ccc(NC(=O)CCCN2C(=O)/C(=C/c3cccs3)SC2=S)cc1 | inconclusive [activator, full curve, poor fit] | –
CC(=O)Nc1ccc2nc(-c3cccs3)[nH]c2c1 | inconclusive [activator, partial curve, poor fit] | –
CC(C)(C)NC(=O)Nc1ccc2nccnc2c1 | inconclusive [activator, partial curve, poor fit] | –
CN(C)c1ccc(/C=C/C(=O)c2ccccc2O)cc1 | inconclusive [activator, partial curve, poor fit] | –
Fc1ccccc1-c1csc(-c2cccnc2)n1 | inconclusive [activator, full curve, poor fit] | –

SMILES | Potency | activity change, positive = activation
Cn1ccnc1SCC(=O)Nc1cccc(C(F)(F)F)c1 | inconclusive [activator, partial curve, poor fit] | –
COc1cccc(/C=N/NC(=O)c2c(C)nc3ccc(Br)cn23)c1O | inconclusive [activator, partial curve] | –
Cc1ccc(C(=O)N2CCCCC2)cc1NC1=C(Cl)C(=O)N(Cc2ccccc2)C1=O | – | inactive: -9.23%
O=C(COc1ccccc1Cl)c1ccc2c(c1)CCCC2 | inconclusive [activator, single point] | –
COC(=O)C(=Cc1ccc(-c2ccsc2C(=O)OC)o1)C(=O)OC | inconclusive [activator, single point] | –
CN(C)C1NC(=O)c2cc(-c3ccccc3)sc2N1 (centres undefined) | inconclusive [activator, partial curve, poor fit] | –
CC(=O)N1c2ccc(S(=O)(=O)NCC3CCC(C(=O)NCc4ccco4)CC3)cc2CC1C (centres undefined) | – | inactive: -2.32%
COc1ccc(N(C)S(=O)(=O)c2cccc(C(=O)N3CCN(S(=O)(=O)c4ccc(C)cc4)CC3)c2)cc1 | – | inactive: -1.33%
Cc1ccc(-c2nnn(CC(=O)Nc3ccc4nn(-c5ccccc5)nc4c3)n2)o1 | – | inactive: 2.38%
Cc1ccc(C(=O)N2CCN(c3ccc(NC(=O)COc4ccccc4C)cc3)CC2)cc1 | – | inactive: 8.43%
CN(C)CCNC(=O)c1ccccc1-c1cc2ccccc2c(=O)o1 | – | inactive: -4.79%
O=S(=O)(Nc1ccc2c(c1)nc1n2CCN(Cc2ccccc2)C1)c1ccccc1 | inconclusive [activator, partial curve, poor fit] | –
CC1CCc2c(sc(NC(=O)CCc3nc4ccccc4c(=O)[nH]3)c2C#N)C1 (centres undefined) | inconclusive [activator, partial curve, poor fit] | –
CC(=C\c1ccccc1)/C=C1/SC(=S)N(CCC(=O)O)C1=O | – | inactive: -9.7%
CC(C(=O)O)c1ccc(N2Cc3ccccc3C2=O)cc1 (centres undefined) | inconclusive [activator, partial curve, poor fit] | –
CC(=O)N1CCC2(CC1)CC(=O)c1cc(OCC(=O)NCc3ccco3)ccc1O2 | – | inactive: 0.632%
CCOc1cccc2sc(N(CCCN(C)C)C(=O)c3ccc(S(=O)(=O)N(C)Cc4ccccc4)cc3)nc12 | inconclusive [activator, single point] | –
CN(C)/C=C/C(=O)c1ccc(Cl)c([N+](=O)[O-])c1 | inconclusive [activator, single point] | –
COCCn1c(SCC(=O)N2CCOCC2)nnc1-c1ccncc1 | inconclusive [activator, single point] | –
Nc1nc(Nc2cccc(F)c2)nc2ccccc12 | inconclusive [activator, partial curve, poor fit] | –
Cc1ccccc1N=Cc1cccc(O)c1O | – | inactive: -20.3%
c1cc(CSc2nnc(-c3ccc4c(c3)OCO4)o2)ccn1 | inconclusive [activator, partial curve, poor fit] | –

Reference: PubChem BioAssay AID504706 (National Center for Advancing Translational Sciences (NCATS), 2011)
